Here are results for 7 molecules from publication PMC11014987.

T1: HemA (a glutamyl-tRNA reductase) (yeast two-hybrid fusion) (Synechocystis sp. PCC 6803) (UniProt P28463)
T1 sequence: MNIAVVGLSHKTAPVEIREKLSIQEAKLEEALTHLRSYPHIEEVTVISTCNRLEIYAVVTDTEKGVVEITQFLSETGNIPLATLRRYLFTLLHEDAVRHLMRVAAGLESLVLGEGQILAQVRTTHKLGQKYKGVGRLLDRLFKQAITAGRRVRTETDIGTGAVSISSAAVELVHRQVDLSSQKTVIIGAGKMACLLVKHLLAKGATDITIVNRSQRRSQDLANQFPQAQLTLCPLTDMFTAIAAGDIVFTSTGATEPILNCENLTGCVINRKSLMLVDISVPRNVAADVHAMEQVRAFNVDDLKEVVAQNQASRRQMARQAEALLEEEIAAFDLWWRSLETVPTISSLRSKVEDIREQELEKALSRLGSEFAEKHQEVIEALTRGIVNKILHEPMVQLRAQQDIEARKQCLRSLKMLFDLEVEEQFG

T2: SdhB1 (sll1625), iron-sulfur cluster binding subunit of the succinate dehydrogenase complex (yeast two-hybrid fusion) (Synechocystis sp. PCC 6803) (UniProt P73723)
T2 sequence: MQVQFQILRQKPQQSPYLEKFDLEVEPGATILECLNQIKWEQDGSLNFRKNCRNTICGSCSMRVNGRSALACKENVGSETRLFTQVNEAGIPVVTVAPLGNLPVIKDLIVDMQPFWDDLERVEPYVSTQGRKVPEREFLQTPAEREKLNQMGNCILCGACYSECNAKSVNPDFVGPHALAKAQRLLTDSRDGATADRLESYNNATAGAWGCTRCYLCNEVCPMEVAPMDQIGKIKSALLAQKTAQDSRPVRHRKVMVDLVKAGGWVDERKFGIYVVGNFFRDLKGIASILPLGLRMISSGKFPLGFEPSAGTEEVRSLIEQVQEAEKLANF

T3: slr0665, an aconitate hydratase (yeast two-hybrid fusion) (Synechocystis sp. PCC 6803) (UniProt P74582)
T3 sequence: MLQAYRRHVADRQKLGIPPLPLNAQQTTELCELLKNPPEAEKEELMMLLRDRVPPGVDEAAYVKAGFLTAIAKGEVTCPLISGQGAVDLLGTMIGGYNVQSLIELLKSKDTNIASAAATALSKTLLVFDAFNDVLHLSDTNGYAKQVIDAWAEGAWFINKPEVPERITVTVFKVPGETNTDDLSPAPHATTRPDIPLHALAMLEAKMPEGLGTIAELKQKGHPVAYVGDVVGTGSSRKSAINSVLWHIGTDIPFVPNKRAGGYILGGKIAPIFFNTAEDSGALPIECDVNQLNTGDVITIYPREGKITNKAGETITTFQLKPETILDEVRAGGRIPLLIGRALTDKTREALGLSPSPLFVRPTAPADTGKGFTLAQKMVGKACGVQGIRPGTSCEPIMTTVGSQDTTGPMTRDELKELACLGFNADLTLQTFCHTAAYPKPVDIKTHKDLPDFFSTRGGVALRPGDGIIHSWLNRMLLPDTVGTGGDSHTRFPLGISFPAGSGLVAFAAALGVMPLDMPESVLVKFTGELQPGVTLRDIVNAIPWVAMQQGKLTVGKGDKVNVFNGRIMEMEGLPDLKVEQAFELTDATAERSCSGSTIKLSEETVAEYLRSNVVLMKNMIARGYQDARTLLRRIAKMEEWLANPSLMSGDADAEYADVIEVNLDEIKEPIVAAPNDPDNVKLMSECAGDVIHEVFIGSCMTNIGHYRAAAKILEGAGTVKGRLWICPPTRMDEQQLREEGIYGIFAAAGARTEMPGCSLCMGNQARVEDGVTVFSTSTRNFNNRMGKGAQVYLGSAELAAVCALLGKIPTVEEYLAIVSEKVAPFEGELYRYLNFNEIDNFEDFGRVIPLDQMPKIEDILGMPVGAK

B1: Dri1 (yeast two-hybrid fusion) (protein, UniProt P73129 1-96)
chain: MADPLTPAISDRICKHMNEDHASAIALYAQVFGQQTDVTMAQMQAIDPTGMDLVVESEGGSKTIRIEFEQPLKDSEDAHQVLIAMAKQARSVGKNS
B2: Dri1 Arg90Ala (yeast two-hybrid fusion) (protein, UniProt P73129 1-96)
chain: B1 chain with R90A
B3: Dri1 His21Ala (yeast two-hybrid fusion) (protein, UniProt P73129 1-96)
chain: B1 chain with H21A
B4: Dri1 His79Ala (yeast two-hybrid fusion) (protein, UniProt P73129 1-96)
chain: B1 chain with H79A
B5: Dri1 His16Ala (yeast two-hybrid fusion) (protein, UniProt P73129 1-96)
chain: B1 chain with H16A
B6: Dri1 His79Ala-Arg90Ala (yeast two-hybrid fusion) (protein, UniProt P73129 1-96)
chain: B1 chain with H79A, R90A
B7: Dri1 Glu76Ala (yeast two-hybrid fusion) (protein, UniProt P73129 1-96)
chain: B1 chain with E76A

Positions count from the first letter of the chain named. These are yes or no findings as the source states them, for the method shown. Some binding calls cover weakened binding; strength is not graded here. Tags and fused reporters may be left off the sequences shown.

One assay addresses T1, HemA (a glutamyl-tRNA reductase) (yeast two-hybrid fusion) (Synechocystis sp. PCC 6803). Briefly: two-hybrid; yeast Y2H-Gold, Gal4 system (pGBKT7 / pGADT7-AD); growth on SD -Leu -Trp -His -Ala, 30 °C, 3 days; three independent clones.
For B1, the binding result is “no binding”.

Another assay addresses T2, SdhB1 (sll1625), iron-sulfur cluster binding subunit of the succinate dehydrogenase complex (yeast two-hybrid fusion) (Synechocystis sp. PCC 6803). The assay is described as above.
In the case of B2, the binding result is given as “binds”.
With B3, the binding result is “no binding”.
On to B4, for which the binding entry was “binds”.
On the same count and under the same terms, for B1 the value was “binds”; for B5, “no binding”.
In the case of B6, the binding result is given as “binds”.
Consider B7, for which the binding entry is on record as “no binding”.

Another assay concerns the target T3, slr0665, an aconitate hydratase (yeast two-hybrid fusion) (Synechocystis sp. PCC 6803). Described as above.
B1: the binding entry is on record as “no binding”.
